Where “and” joins values, the source holds several entries; their conditions need not be identical. Identical values can stand only once. Some of the results follow. Entries with a potency or affinity are not part of this list.
Test system: Pseudomonas aeruginosa
Details: Concentration 32 ug.mL-1, ASSAY_TEST Inhibition of Bacterial Growth, detection method Absorption (OD600), MEDIA CAMHB, plate type 384well, NBS, CORNING #3640, time 18 hr

SMILES	Inhibition	Inhibition (32 ug/mL)
Cl.ClCCN1CCCCC1	14%	
Nc1c2c(nc3c1C(c1ccccc1)CC(=O)N3)CCCC2 (centres undefined)	28.15%	
N#CCC(=O)c1ccccc1	13.15%	
C#CCN1CCc2nc3nc(Cl)c(C#N)cc3c(N)c2C1	11.93%	
CNCc1cn(C)c2ccc(OC)cc12.Cl	37.31%	
CN1CC=C(c2cccn2C)CC1	7.54%	
N#CC(C#N)=Cc1ccc(Cl)cc1	29.89%	
NNCCCc1c[nH]c2ccccc12.O=C(O)/C=C/C(=O)O	33.03%	
CCOC(=O)C1=C(C)NC(=O)CC1c1ccccc1 (centres undefined)	11.3%	
Cc1nc(N)c(C#N)cc1C(=O)O	-2.81%	
NNC(=O)c1cn(Cc2ccccc2)c2ccccc12	26.56%	
CCOC(=O)C1=C(OC)OC(=O)CC1c1ccccc1 (centres undefined)	11.78%	
Cc1ccc(S(=O)(=O)N2[C@H]3CC[C@@H]2CC3)cc1	21.31%	
CN1CC=C(c2cccn2C)CC1.Cl	11.8%	
CC1CC(=O)Nc2nc3c(c(N)c21)CCCC3 (centres undefined)	37.97%	
N#Cc1cc(C#N)c(N2C3CCC2CC3)nc1N	-13.77%	
Cc1ccc(C=C(C#N)C#N)cc1	19.72%	
Cc1ccccc1C=C(C#N)C#N	10.15%	
CCOC(=O)C1=C(C)OC(=O)CC1c1ccccc1 (centres undefined)	18.81%	
[N-]=[N+]=NCC(=O)c1ccc(Br)cc1	20.32%	

SMILES	Inhibition	Inhibition (32 ug/mL)
O=C(N1[C@H]2CC[C@@H]1C(c1nnn[nH]1)C2)C(F)(F)F (some centres undefined)	38.45%	
O=C(CBr)NCc1ccccc1	30.11%	
OCC(Cc1cnc[nH]1)NCc1ccccc1 (centres undefined)	33.69%	
C#CCN1CCc2nc3ncccc3c(N)c2C1.Cl	18.09%	
CCOC(=O)c1cn(Cc2ccccc2)c2ccccc12	26.02%	
CCOc1nc2nc(C)c(C(=O)O)cc2c(-c2ccccc2)c1C#N	20.21%	
CN(C)C(=O)Oc1ccc(CCl)c2cccnc12	31.55%	
COc1cc(C2C(C#N)=C(N)Oc3c2ccc2ccccc32)cc(OC)c1OC (centres undefined)	16.26%	
C#CCN(C)Cc1cc2cc(OCc3ccc(OC(=O)N(C)C)c4ncccc34)ccc2n1C	5.82%	
C#CCN1CCc2nc(N)c(C#N)c(-c3ccccc3)c2C1		1.68% and 1.66%
NNC(=O)c1cccnc1 [NICOTINIC ACID HYDRAZIDE]	18.01%	
C#CCN1CCc2nc3nc(OC)c(C#N)cc3c(N)c2C1	27.74%	
CCOC(=O)c1cc2cc(OC(=O)NC3CCN(Cc4ccccc4)CC3)ccc2[nH]1	12.49%	
Nc1c2c(nc3ccccc13)CCN(Cc1ccccc1)C2	8.84%	
C#CCN(C)Cc1cc2cc(OC(=O)N(C)C)ccc2n1C	-0.33%	
Cl.ClCCN1CCCC1	9.27%	
COc1ccc(C=C(C#N)C#N)cc1OC	21.06%	
C#CCN(C)Cc1cc2cc(OCCCC3CCN(Cc4ccc(OC(=O)N(C)C)c5ncccc45)CC3)ccc2n1C	9.7%	
COc1ccc2c(c1)cc(C[N+](C)(C)C)n2C.[I-]	43.59%	

Source: ChEMBL document CHEMBL4513135, “CO-ADD screening of IQOG CSIS (Spain) compounds”
